Experimental data reported in paper PMC10509304.
No constants are given. Whether binding was seen depends on the method and setting. Binding seen in cells or lysates may run through a third protein. Where a sequence is shown, tags or fusion partners need not be part of it.

Tests used:
Experiment in all cases: co-IP; transient co-expression in HEK293 cells; lysis in IP buffer (50 mM Tris/HCl pH 7.4, 150 mM NaCl, 4 mM EDTA) with 1% Brij-98; 3xFLAG-tagged tetraspanin precipitated with anti-FLAG M2 agarose overnight at 4°C; Western blot
[1] = target: T1, murine CD82 with C-terminal 3xFLAG epitope, transiently expressed in HEK293 (mouse) (UniProt P40237)
T1 sequence: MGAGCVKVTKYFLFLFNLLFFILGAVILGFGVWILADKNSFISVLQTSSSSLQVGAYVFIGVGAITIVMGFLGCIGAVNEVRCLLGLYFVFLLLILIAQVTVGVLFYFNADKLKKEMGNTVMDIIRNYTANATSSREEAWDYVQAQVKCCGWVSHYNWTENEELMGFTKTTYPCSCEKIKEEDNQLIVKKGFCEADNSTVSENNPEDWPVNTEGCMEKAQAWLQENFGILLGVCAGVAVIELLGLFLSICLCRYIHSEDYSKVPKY

[2] = target: T2, murine CD81 with C-terminal 3xFLAG epitope, transiently expressed in HEK293 (mouse) (UniProt P35762)
T2 sequence: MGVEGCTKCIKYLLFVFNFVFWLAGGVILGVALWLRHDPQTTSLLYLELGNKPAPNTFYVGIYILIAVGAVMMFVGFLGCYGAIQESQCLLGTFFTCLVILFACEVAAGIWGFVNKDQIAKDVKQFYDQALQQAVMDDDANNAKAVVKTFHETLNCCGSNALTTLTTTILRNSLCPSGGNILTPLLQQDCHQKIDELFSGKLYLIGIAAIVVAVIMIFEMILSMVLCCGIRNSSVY

[3] = target: T3, murine CD9 with C-terminal 3xFLAG epitope, transiently expressed in HEK293 (mouse) (UniProt P40240)
T3 sequence: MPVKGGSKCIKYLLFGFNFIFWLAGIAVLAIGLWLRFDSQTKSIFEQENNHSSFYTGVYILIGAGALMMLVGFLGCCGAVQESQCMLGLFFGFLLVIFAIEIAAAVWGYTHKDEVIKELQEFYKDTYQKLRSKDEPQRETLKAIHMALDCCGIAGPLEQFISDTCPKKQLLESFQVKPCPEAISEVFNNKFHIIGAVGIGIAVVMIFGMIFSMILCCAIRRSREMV

binding [1]: no binding
binding [2]: no binding
binding [3]: no binding
Substance: endogenous epidermal growth factor receptor (EGFR) (from UniProt P00533 25-1210)
